Among the data in the antibiotic and cytotoxicity screens of Wong et al. (2023) are cytotoxicity call and growth inhibition call values, retold here.

This is one part of the list.

The subject of the first assay is HepG2. As to the kind of experiment: cytotoxicity call (relative viability < 0.9). As to conditions: 10 µM.
Take `CC(=CCC1=C(C)C(=O)c2ccccc2C1=O)CCCC(C)CCCC(C)CCCC(C)C` (configuration not stated): the cytotoxicity call was “inactive”.
As to `C[C@@H]1CCCCO[C@@H](CN(C)C(=O)Nc2ccc(C(F)(F)F)cc2)[C@@H](C)CN([C@H](C)CO)C(=O)c2cc(NS(=O)(=O)c3cn(C)cn3)ccc2O1`, the cytotoxicity call is “inactive”.
With `C[C@@H]1CN([C@@H](C)CO)C(=O)c2cccc(NS(C)(=O)=O)c2O[C@@H]1CN(C)S(=O)(=O)c1ccc(Cl)cc1`, the cytotoxicity call is “inactive”.

A further assay relates to S. aureus RN4220. The assay is described as follows: growth inhibition call (relative growth <= 0.2). As to conditions: 50 µM.
Consider `C[C@H](CO)N1C[C@H](C)[C@@H](CN(C)S(C)(=O)=O)Oc2c(cccc2N(C)C)C1=O`, for which the growth inhibition call is “inactive”.
Still for that read-out and setting: in the case of `O=C1N[C@@H](Cc2c[nH]c3ccccc23)COC(=O)[C@H](Cc2ccc(F)cc2)CCC=CC[C@H]1CC(=O)N(CCO)Cc1ccccc1` it was “inactive”; in that of `CC(C)NC(=O)NCC[C@H]1CC[C@@H](NC(=O)CN(C)C)[C@@H](CO)O1`, “inactive”; in that of `FCOC(C(F)(F)F)C(F)(F)F`, “inactive”.
On the same count and under the same terms, in the case of `CCS(=O)(=O)Nc1ccc2c(c1)C(=O)N(C)[C@H]1CC[C@@H](CC(=O)NCCOC)O[C@H]1CO2` it was “inactive”.
`CC(O)(CN)CCc1ccccc1` (configuration not stated): the growth inhibition call is “inactive”.
Same read-out and setting: for `O=C(O)CN1C(=O)c2cccc3cccc(c23)C1=O` the value was “inactive”; for `O=C(C[C@@H]1CC=CCC[C@@H](Cc2ccc(F)cc2)C(=O)OC[C@H](Cc2ccccc2)NC1=O)NCCO`, “inactive”.
On the same count and under the same terms, for `C[C@@H]1CN([C@H](C)CO)C(=O)c2cc(NC(=O)C3CCCCC3)ccc2O[C@@H](C)CCCCO[C@@H]1CN(C)S(=O)(=O)c1ccccc1` the value was “inactive”.
Still for that read-out and setting: in the case of `C[C@@H]1CN([C@H](C)CO)C(=O)c2cc(NC(=O)Cc3ccccc3)ccc2O[C@@H]1CN(C)Cc1ccc(Oc2ccccc2)cc1` it was “inactive”; in that of `C[C@H](CO)N1C[C@H](C)[C@@H](CN(C)CC2CC2)OCCCC[C@H](C)Oc2ccc(NC(=O)Nc3ccc(F)cc3)cc2C1=O`, “inactive”.
Take `CCCCCCCCCCCCCCCCOc1nc2ccc(C)cc2c(=O)o1`: the growth inhibition call was “inactive”.
On the same count and under the same terms, for `C[C@@H]1CN([C@@H](C)CO)C(=O)c2cccc(NC(=O)c3ccc(-c4nccs4)cc3)c2O[C@@H]1CN(C)C(=O)Nc1ccc2c(c1)OCO2` the value was “inactive”; for `COc1ccc(S(=O)(=O)Nc2ccc3c(c2)CC(=O)N([C@H](C)CO)C[C@H](C)[C@H](CN(C)Cc2ccc(C(=O)O)cc2)O3)cc1`, “inactive”; for `C[C@@H]1CN([C@H](C)CO)C(=O)c2cccc(NC(=O)Nc3cccc4ccccc34)c2O[C@@H]1CN(C)Cc1ccncc1`, “inactive”.
On the same count and under the same terms, for `C[C@H]1CN([C@@H](C)CO)S(=O)(=O)c2ccc(-c3cccc(C#N)c3)cc2O[C@@H]1CN(C)C(=O)c1cccnc1` the value was “inactive”; for `COC(=O)[C@H]1[C@H](CO)[C@H]2Cn3c(ccc(-c4ccccc4)c3=O)[C@H]2N1S(C)(=O)=O`, “inactive”.
On the same count and under the same terms, in the case of `C[C@@H](O)CN1C(=S)S[C@@H]2CS(=O)(=O)C[C@@H]21` it was “inactive”; in that of `Cc1ccc(OCc2ccc(Cl)cc2)c(C(C)(C)C)c1`, “inactive”.
As for `CCCCC(CC)COC(=O)CC(C(=O)OCC(CC)CCCC)S(=O)(=O)[O-].[Na+]` (configuration not stated), the growth inhibition call is “inactive”.
Same read-out and setting: for `COc1c(-c2ccccc2)oc2c(ccc3ccoc32)c1=O` the value was “inactive”.
Turning to `C[C@@H]1CCCCO[C@@H](CN(C)C(=O)Nc2cccc3ccccc23)[C@H](C)CN([C@H](C)CO)C(=O)c2cc(NC(=O)Cc3ccccc3)ccc2O1`, the growth inhibition call was “inactive”.
Same read-out and setting: for `COc1ccc(NC(=O)Nc2ccc3c(c2)C(=O)N([C@H](C)CO)C[C@@H](C)[C@H](CN(C)Cc2ccccc2)OCCCC[C@@H](C)O3)cc1` the value was “inactive”.
The same measure, in the same setting: for `C[C@H]1CN([C@@H](C)CO)C(=O)Cc2cc(NC(=O)C3CCCCC3)ccc2O[C@H]1CN(C)C(=O)Nc1ccc(C(F)(F)F)cc1` the value was “inactive”; for `CNC[C@@H]1OCCCC[C@H](C)Oc2ccc(NC(=O)Nc3ccc(C(F)(F)F)cc3)cc2C(=O)N([C@@H](C)CO)C[C@H]1C`, “inactive”.
On the same count and under the same terms, for `Cc1noc(C)c1NC(=O)N(C)C[C@H]1Oc2c(NS(=O)(=O)c3ccccc3)cccc2C(=O)N([C@@H](C)CO)C[C@@H]1C` the value was “inactive”; for `C[C@@H]1CN([C@H](C)CO)S(=O)(=O)c2ccc(C#Cc3cccc(F)c3)cc2O[C@@H]1CN(C)S(=O)(=O)c1ccccc1F`, “inactive”.
Take `Cc1noc(C)c1NC(=O)Nc1ccc2c(c1)C(=O)N([C@H](C)CO)C[C@H](C)[C@@H](CN(C)CC1CC1)OCCCC[C@@H](C)O2`: the growth inhibition call was “inactive”.
`C=CC(=O)N[C@@H]1CN(c2nc(Nc3cn(C)nc3OC)c3ncn(C)c3n2)C[C@H]1F`: the growth inhibition call is “inactive”.
